Out of some 2,800 compounds screened, fewer than 10 were called active. Calls follow the shape of the dose curve; as a rule, active = well fitted curve in the direction sought with a large enough effect; inconclusive = small, poorly fitted or top-dose-only effect, or another doubt; inactive = no such curve, though single readings can be large or run the other way. The list shows a part of the results.
These molecules were tested against Metallo-beta-lactamase type 2 (Klebsiella pneumoniae) (UniProt C7C422) (assay: qHTS to identify inhibitors of the New Delhi Metallo-beta-lactamase (NDM): Meropenem screen against the machine-based learning selections.). Conditions: Purified NDM-1, meropenem hydrolysis, absorbance 300 nm; at 38.4 µM (top of the series) unless noted.
From the text: Assay Submitter (PI): James Inglese Ph.D., Patricia Dranchak Ph.D., Mahesh Aitha Ph.D. Assay Development and Screening Technology Laboratory (ADST) National Center for Advancing Translational Sciences (NCATS), Rockville, MD National Institute of Health (NIH), Bethesda, Maryland The metallo-beta-lactamases (MBL) are a main antibiotic resistance mechanism evolved by bacteria. There is an urgent clinical need for MBL inhibitors to mitigate this growing threat. To support a machine-based learning study, qHTS has been used to experimentally test inhibitors identified by prediction tools.
PROTOCOL TABLE (as described by Inglese et al., 2007) SEQUENCE No. (e.g., 1, 2, 3, etc.); […] (e.g., enzyme, Incubation, Reagent, etc.); VALUE; DESCRIPTION Primary Screen 1; NDM-1; 4 uL of 3 nM enzyme [2 nM final] in 50 mM HEPES (pH 7.0), 1 uM […], 0.01% Tween20; Use BioRaptr to dispense into two sets of Aurora black, clear bottom high base 1536-well plates 2; Compounds; 23 nL; Use Pin Tool (Wako) to transfer DMSO control and library compounds in DMSO 3; Incubate; >30 min 4a; Reagent; 2 uL of 50 uM nitrocefin [16.7 uM final] to one set of assay plates 4b; Reagent; 2 uL of 150 uM meropenem [50 uM final] to second set of assay plates 5a; Incubate; 15 min 5b; Incubate; 30 min 6a; Detector; Absorbance at 485 nm (bandwidth = 5 nm, 25 flashes/well) on Tecan Infinity 6b; Detector; Absorbance at 300 nm (bandwidth = 5 nm, 25 flashes/well) on Tecan Infinity NOTES (numbers refer to sequence above) 1; Column 1 of each plate received assay buffer without enzyme and columns 2-48 received enzyme for a final assay concentration of 2 nM. 2; Control plate contained DMSO in columns 1, 2, 3, and 4. 3; Compound interaction with enzyme. 4; Nitrocefin and meropenem substrates were prepared in the same assay buffer as step 1 for a final assay concentration of 16.7 uM and 50 uM, respectively, and added to all wells across respective sets of assay plates. 5; Default reader settings were applied for absorbance read at 485 nm (nitrocefin) or 300 nm (meropenem), bandwidth = 5 nm, 25 flashes/well. References: Inglese J, Shamu CE, Guy RK. 2007. Reporting data from high-throughput screening of small-molecule libraries. Nat Chem Biol. doi:10.1038/nchembio0807-438 Yasgar A, Shinn P, Jadhav A, Auld D, Michael S, Zheng W, Austin CP, Inglese J, Simeonov A. 2008. Compound Management for Quantitative High-Throughput Screening. J Lab Autom 13:79 - 89. doi:10.1016/j.jala.2007.12.004
Also: % of control where 0% means no effect.

UniProt C7C422, sequence (C7C422 whole entry, looked up): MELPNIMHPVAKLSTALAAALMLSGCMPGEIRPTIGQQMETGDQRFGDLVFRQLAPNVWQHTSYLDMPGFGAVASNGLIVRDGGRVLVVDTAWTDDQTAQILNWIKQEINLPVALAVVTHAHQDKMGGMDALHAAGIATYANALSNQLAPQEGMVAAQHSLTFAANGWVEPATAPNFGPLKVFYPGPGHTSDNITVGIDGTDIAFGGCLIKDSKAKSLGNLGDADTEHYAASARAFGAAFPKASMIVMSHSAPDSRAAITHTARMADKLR

SMILES | activity change, negative = inhibition
COc1ccc(-c2cc(N3CCCN(C(=O)c4ccc(C)s4)CC3)n[nH]2)cc1 | inactive: -2.79%
O=C(Nc1ccccc1CCc1ccccn1)C1CCN(c2cnn(Cc3ccccc3)c(=O)c2)C1 (centres undefined) | inactive: 2.68%
NS(=O)(=O)c1ccc(C(=O)N[C@H](c2cccs2)C2CC(O)C2)cc1 (some centres undefined) | inactive: -0.552%
CNC(=O)[C@@H](c1ccccc1OC)N1CCC[C@H]1C(=O)N(C)CCN(C)C | inactive: 49.5% [at 57.5 µM]
O=C(O)CCCC(=O)N1CCN2C(=O)c3cc(-c4ccco4)ccc3NC(=O)[C@@H]2C1 | inactive: 15.5% [at 57.5 µM]
CCCC(C)N1CC2(CCN(C(=O)c3cnn4ccccc34)CC2)OC1=O (centres undefined) | inactive: 0.945%
O=C(NCCc1noc(C(F)(F)F)n1)[C@H]1CCC[C@H](O)C1 | inactive: -2.79%
Cc1ccc(S(=O)(=O)Cc2noc([C@@H]3C[C@@H](O)CN3C(C)C)n2)cc1 | inactive: 1.26% [at 57.5 µM]
CCCn1ccc2sc(C)c(C(=O)NCc3cc(F)ccc3F)c2c1=O | inactive: -1.34%
CC(C)N1CCC(O)(c2csc(CN3CCN(C)CC3)n2)CC1 | inactive: -2.37% [at 57.5 µM]
Cc1csc(NC(=O)c2nc(C(O)c3cccc(O)c3)oc2C)n1 (centres undefined) | inactive: 65.5% [at 57.5 µM]
Cn1c(CO[C@H]2CN(C(=O)c3cccnc3)C[C@H]2F)nc2ccccc21 | inactive: 0.954% [at 57.5 µM]
Oc1ccccc1CN1CCNc2cnc(Oc3ccccc3)cc2C1 | inactive: 7.83% [at 57.5 µM]
Cc1cccc2nc(CNC(=O)c3cccc(C4CCNC4)c3)cn12 (centres undefined) | inactive: 38%
CCOc1ccccc1-n1c(Cc2ccc(O)cc2)n[nH]c1=O | inactive: 0.327%
COc1ccc(-c2cnc([C@@H]3COCCN3Cc3cn(C)c4ccccc34)[nH]2)cc1 | inactive: -1.61% [at 57.5 µM]
COc1ccccc1-c1noc(CCC(=O)N2CCC(Cc3noc(C)n3)CC2)n1 | inactive: -4.18%
O=C(c1ccccc1)N1CCC(NCCN2CCCCC2CO)CC1 (centres undefined) | inactive: 3.23%
C#CCN(C)CC[C@@H]1CC[C@H](O)[C@@H](C(=O)N(C)Cc2ccccc2)O1 | inactive: -1.25% [at 57.5 µM]
Cc1ncnc(N2CCC(Oc3ccc4ccccc4c3)(C(=O)O)CC2)c1C | inactive: 3.39%

SMILES | activity change, negative = inhibition
O=C(O)CCCC(=O)N1C[C@@H](C(=O)O)[C@H](c2ccc3c(c2)OCO3)C1 | inactive: 1.3%
COC(=O)CNC(=O)C1CCN(C(=O)C2CN(c3cccc(OC)c3)C(=O)N2)C1 (centres undefined) | inactive: -0.602%
COC(=O)[C@H]1CN(C(=O)c2cccnc2)CCN1C(=O)C1CCCCC1 | inactive: -3.86% [at 57.5 µM]
CC1(C(=O)NCc2cccnc2)CCCc2cnc(NCc3ccccc3)nc21 (centres undefined) | inactive: 1.94% [at 57.5 µM]
Fc1ccccc1CNC1(Cc2cc(-c3ccccn3)on2)COC1 | inactive: 4.18% [at 57.5 µM]
Cc1noc([C@@H](C)NCc2cccc(Cl)c2)c1C(=O)O | inactive: 66.5% [at 57.5 µM]
O=C(CCc1c[nH]c2ccccc12)N1CCC(Oc2ncccc2C(=O)N2CCCCC2)C1 (centres undefined) | inactive: 0.926%
O=C(Nc1ccccc1)N[C@H]1[C@H](O)[C@@H](N2CCN(c3ccccc3)CC2)[C@@H]2OC[C@H]1O2 | inactive: 6.33% [at 57.5 µM]
CCN(CC)Cc1cnc2c(C(=O)Nc3ccc(OC)c(OC)c3)cnn2c1 | inactive: 1.11%
C#CCN(C)Cc1nc(C2(O)CCN(CC3CCCCC3)CC2)cs1 | inactive: 0.103% [at 57.5 µM]
c1cncc(-c2ccnc(NCCCN3CCCc4ccccc43)n2)c1 | inactive: 3.43%
CS(=O)(=O)N1C[C@@H]2OCC(=O)N(Cc3cccnc3)[C@@H]2C1 | inactive: -0.366% [at 57.5 µM]
OC1CC([C@H](NC2CSCCSC2)c2ccc3c(c2)CCO3)C1 (some centres undefined) | inactive: -1.24%
COC(=O)c1ccccc1NC(=O)Cn1cccc1-c1nc(-c2ccccc2)no1 | inactive: 3.57%
CNC(=O)[C@@H](c1ccccc1F)N1CCC[C@H]1C(=O)NCc1cccnc1 | inactive: 50.6%
OC1(CNCCc2nc(-c3cccnc3)n[nH]2)CNCCOC1 (centres undefined) | inactive: 14%
COc1ccc(-c2ccnc(N[C@H]3CO[C@H]4[C@@H]3OC[C@@H]4NC(=O)c3ccc(C)cc3)n2)cc1 | inactive: 6.48%
COc1ccc(Cl)cc1-c1ccc2c(c1)C(=O)N1CC[C@H](N)C[C@H]1C(=O)N2 | inactive: 12.7% [at 57.5 µM]
Cc1nc(CN2CCN(C(C(=O)O)c3cc4ccccc4o3)CC2)cs1 (centres undefined) | inactive: 17%
